In patent publication US20240076343A1 (CEPHALON, published 2024):

T1: intermediate-affinity hIL-2 receptor (IL-2Rβγ) on TF1+IL-2Rβ cells (human, UniProt P14784 27-551; P31785 23-369)
T1 sequence 1: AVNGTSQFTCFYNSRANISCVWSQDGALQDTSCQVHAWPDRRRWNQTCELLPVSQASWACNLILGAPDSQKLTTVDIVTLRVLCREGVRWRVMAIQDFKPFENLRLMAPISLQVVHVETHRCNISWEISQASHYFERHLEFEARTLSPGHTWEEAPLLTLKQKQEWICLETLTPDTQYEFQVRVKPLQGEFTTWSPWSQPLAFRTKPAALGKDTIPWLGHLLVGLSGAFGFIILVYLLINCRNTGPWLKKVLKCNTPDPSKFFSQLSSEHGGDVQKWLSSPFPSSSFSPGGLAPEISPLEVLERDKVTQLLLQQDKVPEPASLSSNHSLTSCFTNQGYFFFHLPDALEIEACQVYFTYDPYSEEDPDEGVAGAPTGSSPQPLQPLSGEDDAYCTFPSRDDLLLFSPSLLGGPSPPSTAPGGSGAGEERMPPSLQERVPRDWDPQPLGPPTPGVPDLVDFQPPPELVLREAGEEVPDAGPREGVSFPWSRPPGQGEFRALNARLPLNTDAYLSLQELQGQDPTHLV
T1 sequence 2: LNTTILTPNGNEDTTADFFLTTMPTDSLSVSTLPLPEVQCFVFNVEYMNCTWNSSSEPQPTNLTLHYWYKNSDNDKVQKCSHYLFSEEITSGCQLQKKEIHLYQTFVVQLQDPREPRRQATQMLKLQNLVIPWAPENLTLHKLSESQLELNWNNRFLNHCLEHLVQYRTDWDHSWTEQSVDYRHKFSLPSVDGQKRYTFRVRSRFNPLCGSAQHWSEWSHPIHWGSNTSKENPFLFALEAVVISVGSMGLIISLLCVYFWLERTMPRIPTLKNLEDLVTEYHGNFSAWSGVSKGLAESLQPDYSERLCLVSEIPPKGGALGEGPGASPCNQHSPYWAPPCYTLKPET

T2: high-affinity hIL-2 receptor (IL-2Rαβγ) on NK-92 cells (human, UniProt P01589 22-272; P14784 27-551; P31785 23-369)
T2 sequence 1: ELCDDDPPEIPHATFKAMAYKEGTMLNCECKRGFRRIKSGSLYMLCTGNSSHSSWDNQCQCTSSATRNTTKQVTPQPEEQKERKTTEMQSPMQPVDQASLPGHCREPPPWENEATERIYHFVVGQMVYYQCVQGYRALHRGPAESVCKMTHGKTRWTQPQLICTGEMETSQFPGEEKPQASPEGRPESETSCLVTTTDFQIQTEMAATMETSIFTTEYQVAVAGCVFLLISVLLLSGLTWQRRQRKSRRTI
T2 sequence 2: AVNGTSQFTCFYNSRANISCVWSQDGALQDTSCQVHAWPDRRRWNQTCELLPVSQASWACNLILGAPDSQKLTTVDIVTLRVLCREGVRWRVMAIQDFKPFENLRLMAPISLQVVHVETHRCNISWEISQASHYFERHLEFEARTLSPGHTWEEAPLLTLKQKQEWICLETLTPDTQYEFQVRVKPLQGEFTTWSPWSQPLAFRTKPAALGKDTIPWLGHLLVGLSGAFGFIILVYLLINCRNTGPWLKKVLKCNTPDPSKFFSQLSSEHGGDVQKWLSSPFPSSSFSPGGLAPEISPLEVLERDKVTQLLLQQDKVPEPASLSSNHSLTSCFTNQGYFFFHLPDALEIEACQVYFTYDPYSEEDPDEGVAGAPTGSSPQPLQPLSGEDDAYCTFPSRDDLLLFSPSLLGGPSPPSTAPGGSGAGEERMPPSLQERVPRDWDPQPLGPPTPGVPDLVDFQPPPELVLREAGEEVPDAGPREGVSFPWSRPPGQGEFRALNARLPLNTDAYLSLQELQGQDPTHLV
T2 sequence 3: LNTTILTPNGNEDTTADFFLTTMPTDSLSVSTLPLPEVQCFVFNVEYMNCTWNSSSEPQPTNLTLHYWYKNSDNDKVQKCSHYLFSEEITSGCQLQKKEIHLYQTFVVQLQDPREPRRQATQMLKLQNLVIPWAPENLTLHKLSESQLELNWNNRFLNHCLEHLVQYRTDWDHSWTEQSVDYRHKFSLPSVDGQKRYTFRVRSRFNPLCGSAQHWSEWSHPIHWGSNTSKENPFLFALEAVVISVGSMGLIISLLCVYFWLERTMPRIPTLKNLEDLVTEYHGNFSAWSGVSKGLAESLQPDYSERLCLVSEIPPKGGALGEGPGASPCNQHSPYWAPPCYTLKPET


Tests used:
Assay in all cases: cell-based or functional assay
[1] = biological target: T1, intermediate-affinity hIL-2 receptor …
[2] = biological target: T2, high-affinity hIL-2 receptor (IL-2Rαβγ) …
[3] = biological target: T1, intermediate-affinity hIL-2 receptor …; remark: listed apart in the source

Row | Binder | Fold decrease from rhIL-2 (TF1 + IL-2Rβ + hPD-1) [1] [fold] | Agonistic Activity (NK-92) [2] [%] | Fold change from rhIL-2 (NK-92) [2] [fold] | Fold change from rhIL-2 (TF1 + IL-2Rβ) [3] [fold] | Agonistic Activity (TF1 + IL-2Rβ) [3] [%]
1 | 1H3-hIgG4-L6-hIL-2 (D20A/R38P) (other) heavy: EVQLVESGGGLVQPGRSLKLSCAVSGFTFSDYAMAWVRQAPKKGLEWVATISYDGSRTYYRDSVKGRFTISRDNAKITLYLQMDSLRSEDTATYYCARHGSGYFDYWGQGVMVTVSSASTKGPSVFPLAPCSRSTSESTAALGCLVKDYFPEPVTVSWNSGALTSGVHTFPAVLQSSGLYSLSSVVTVPSSSLGTKTYTCNVDHKPSNTKVDKRV[not shown - about 350 residues with a human IgG4 Fc and changes] light: DTVLTQSPALAVSPGERVTISCRASESVRTGVHWYQQKPGQQPKLLIYGASNLESGVPARFSGSGSGTDFTLTIDPVEADDTATYFCQQSWNDPFTFGSGTKLEIKRTVAAPSVFIFPPSDEQLKSGTASVVCLLNNFYPREAKVQWKVDNALQSGNSQESVTEQDSKDSTYSLSSTLTLSKADYEKHKVYACEVTHQGLSSPVTKSFNRGEC | ~3070 | 80 | > 10000 | ~4130 | –
2 | 1H3-hIgG4-L6-hIL-2 (D20A/R38S) (other) heavy: EVQLVESGGGLVQPGRSLKLSCAVSGFTFSDYAMAWVRQAPKKGLEWVATISYDGSRTYYRDSVKGRFTISRDNAKITLYLQMDSLRSEDTATYYCARHGSGYFDYWGQGVMVTVSSASTKGPSVFPLAPCSRSTSESTAALGCLVKDYFPEPVTVSWNSGALTSGVHTFPAVLQSSGLYSLSSVVTVPSSSLGTKTYTCNVDHKPSNTKVDKRV[not shown - about 350 residues with a human IgG4 Fc and changes] light: DTVLTQSPALAVSPGERVTISCRASESVRTGVHWYQQKPGQQPKLLIYGASNLESGVPARFSGSGSGTDFTLTIDPVEADDTATYFCQQSWNDPFTFGSGTKLEIKRTVAAPSVFIFPPSDEQLKSGTASVVCLLNNFYPREAKVQWKVDNALQSGNSQESVTEQDSKDSTYSLSSTLTLSKADYEKHKVYACEVTHQGLSSPVTKSFNRGEC | ~4480 | 90 | > 10000 | ~9220 | –
3 | 1H3-hIgG4-L6-hIL-2 (D20A/F42H/E95A) (other) heavy: EVQLVESGGGLVQPGRSLKLSCAVSGFTFSDYAMAWVRQAPKKGLEWVATISYDGSRTYYRDSVKGRFTISRDNAKITLYLQMDSLRSEDTATYYCARHGSGYFDYWGQGVMVTVSSASTKGPSVFPLAPCSRSTSESTAALGCLVKDYFPEPVTVSWNSGALTSGVHTFPAVLQSSGLYSLSSVVTVPSSSLGTKTYTCNVDHKPSNTKVDKRV[not shown - human IgG4 Fc with S228P (EU numbers)]SGGGGSAPTSSSTKKTQLQLEHLLLALQMILNGINNYKNPKLTRMLTHKFYMPKKATELKHLQCLEEELKPLEEVLNLAQSKNFHLRPRDLISNINVIVLALKGSETTFMCEYADETATIVEFLNRWITFCQSIISTLT light: DTVLTQSPALAVSPGERVTISCRASESVRTGVHWYQQKPGQQPKLLIYGASNLESGVPARFSGSGSGTDFTLTIDPVEADDTATYFCQQSWNDPFTFGSGTKLEIKRTVAAPSVFIFPPSDEQLKSGTASVVCLLNNFYPREAKVQWKVDNALQSGNSQESVTEQDSKDSTYSLSSTLTLSKADYEKHKVYACEVTHQGLSSPVTKSFNRGEC | ~657 | – | > 10000 | ~1370 | –
4 | 1H3-hIgG4-L6-hIL-2 (D20A/R38Q/E95A) (other) heavy: EVQLVESGGGLVQPGRSLKLSCAVSGFTFSDYAMAWVRQAPKKGLEWVATISYDGSRTYYRDSVKGRFTISRDNAKITLYLQMDSLRSEDTATYYCARHGSGYFDYWGQGVMVTVSSASTKGPSVFPLAPCSRSTSESTAALGCLVKDYFPEPVTVSWNSGALTSGVHTFPAVLQSSGLYSLSSVVTVPSSSLGTKTYTCNVDHKPSNTKVDKRV[not shown - human IgG4 Fc with S228P (EU numbers)]SGGGGSAPTSSSTKKTQLQLEHLLLALQMILNGINNYKNPKLTQMLTFKFYMPKKATELKHLQCLEEELKPLEEVLNLAQSKNFHLRPRDLISNINVIVLALKGSETTFMCEYADETATIVEFLNRWITFCQSIISTLT light: DTVLTQSPALAVSPGERVTISCRASESVRTGVHWYQQKPGQQPKLLIYGASNLESGVPARFSGSGSGTDFTLTIDPVEADDTATYFCQQSWNDPFTFGSGTKLEIKRTVAAPSVFIFPPSDEQLKSGTASVVCLLNNFYPREAKVQWKVDNALQSGNSQESVTEQDSKDSTYSLSSTLTLSKADYEKHKVYACEVTHQGLSSPVTKSFNRGEC | ~3540 | – | 153 | ~5740 | –
5 | 1H3-hIgG4-L6-hIL-2 (D20A/R38D) (other) heavy: EVQLVESGGGLVQPGRSLKLSCAVSGFTFSDYAMAWVRQAPKKGLEWVATISYDGSRTYYRDSVKGRFTISRDNAKITLYLQMDSLRSEDTATYYCARHGSGYFDYWGQGVMVTVSSASTKGPSVFPLAPCSRSTSESTAALGCLVKDYFPEPVTVSWNSGALTSGVHTFPAVLQSSGLYSLSSVVTVPSSSLGTKTYTCNVDHKPSNTKVDKRV[not shown - about 350 residues with a human IgG4 Fc and changes] light: DTVLTQSPALAVSPGERVTISCRASESVRTGVHWYQQKPGQQPKLLIYGASNLESGVPARFSGSGSGTDFTLTIDPVEADDTATYFCQQSWNDPFTFGSGTKLEIKRTVAAPSVFIFPPSDEQLKSGTASVVCLLNNFYPREAKVQWKVDNALQSGNSQESVTEQDSKDSTYSLSSTLTLSKADYEKHKVYACEVTHQGLSSPVTKSFNRGEC | ~2960 | 90 | ~118 | ~8590 | 90

Further lines, results first:

Row | Fold decrease from rhIL-2 (TF1 + IL-2Rβ + hPD-1) [1] [fold] | Agonistic Activity (NK-92) [2] [%] | Fold change from rhIL-2 (NK-92) [2] [fold] | Fold change from rhIL-2 (TF1 + IL-2Rβ) [3] [fold] | Agonistic Activity (TF1 + IL-2Rβ) [3] [%] | Binder
6 | ~1430 | – | 190 | 437 | – | 1H3-hIgG4-L6-hIL-2 (R38D/I92D) (other) heavy: EVQLVESGGGLVQPGRSLKLSCAVSGFTFSDYAMAWVRQAPKKGLEWVATISYDGSRTYYRDSVKGRFTISRDNAKITLYLQMDSLRSEDTATYYCARHGSGYFDYWGQGVMVTVSSASTKGPSVFPLAPCSRSTSESTAALGCLVKDYFPEPVTVSWNSGALTSGVHTFPAVLQSSGLYSLSSVVTVPSSSLGTKTYTCNVDHKPSNTKVDKRV[not shown - about 350 residues with a human IgG4 Fc and changes] light: DTVLTQSPALAVSPGERVTISCRASESVRTGVHWYQQKPGQQPKLLIYGASNLESGVPARFSGSGSGTDFTLTIDPVEADDTATYFCQQSWNDPFTFGSGTKLEIKRTVAAPSVFIFPPSDEQLKSGTASVVCLLNNFYPREAKVQWKVDNALQSGNSQESVTEQDSKDSTYSLSSTLTLSKADYEKHKVYACEVTHQGLSSPVTKSFNRGEC
7 | ~1 | – | 520 | – | – | 2H7-hIgG4-df-hIL-2 (T3A/R38E/I92K/C125A) (other) heavy: EVQLLESGGGLVQPGGSLRLSCAASGFTFKDYCMTWVRQAPGKGLEWVSAIVYSGGSTYYADSVKGRFTISRDNSKNTLYLQMNNLRAEDTAVYYCAKYTRASYFYDAMDVWGQGTTVTVSSASTKGPSVFPLAPCSRSTSESTAALGCLVKDYFPEPVTVSWNSGALTSGVHTFPAVLQSSGLYSLSSVVTVPSSSLGTKTYTCNVDHKPSNTKVDKRV[not shown - human IgG4 Fc with S228P (EU numbers)]APASSSTKKTQLQLEHLLLDLQMILNGINNYKNPKLTEMLTFKFYMPKKATELKHLQCLEEELKPLEEVLNLAQSKNFHLRPRDLISNINVKVLELKGSETTFMCEYADETATIVEFLNRWITFAQSIISTLT light: EIVLTQSPGTLSLSPGERATLSCRASQSIGKSFLAWYQQKPGQAPRLLIYDASTRAADIPARFSGSGSGTDFTLTISSLEPEDFAVYYCQQYYDWPPLSFGGGTKVEIKRTVAAPSVFIFPPSDEQLKSGTASVVCLLNNFYPREAKVQWKVDNALQSGNSQESVTEQDSKDSTYSLSSTLTLSKADYEKHKVYACEVTHQGLSSPVTKSFNRGEC
